From PubChem BioAssay AID894 (National Center for Advancing Translational Sciences (NCATS), 2007)
Several values for one entry are separate records, joined by “and”; a condition that tells them apart may be missing. Identical values can stand only once. In all, about 150,000 compounds went through this assay and about 6,500 (4.3%) were called active. The inconclusive results got no clear call from the source; some entries with a clear call stand among them for comparison. Calls come from the whole dose curve; as a rule, active = well fitted inhibition curve with a large enough effect (not every such curve was filed as active); inconclusive = small, poorly fitted or top-dose-only effect, or another doubt; inactive = no such curve, though single readings can be large or run the other way. Where the call is inconclusive, the potency comes from a doubtful curve fit.

Each molecule was assayed against 15-hydroxyprostaglandin dehydrogenase [NAD(+)] (Homo sapiens) (UniProt P15428) (assay: qHTS Assay for Inhibitors of HPGD (15-Hydroxyprostaglandin Dehydrogenase)). Settings: purified HPGD, NADH fluorescence kinetic, PGE2 substrate; activity change, negative = inhibition: hits give low values.
Sequence of UniProt P15428 (P15428 whole entry, looked up): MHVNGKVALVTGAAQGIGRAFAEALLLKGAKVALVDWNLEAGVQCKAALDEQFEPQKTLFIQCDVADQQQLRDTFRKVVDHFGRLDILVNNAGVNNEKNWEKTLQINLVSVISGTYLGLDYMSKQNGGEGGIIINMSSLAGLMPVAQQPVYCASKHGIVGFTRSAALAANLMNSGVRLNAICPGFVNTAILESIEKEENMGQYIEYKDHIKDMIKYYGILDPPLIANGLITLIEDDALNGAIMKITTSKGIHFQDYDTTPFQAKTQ
Method in brief: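 20 nM HPGD preincubated 15 min at room temperature with compound in 50 mM Tris-HCl pH 8, 0.01% Tween 20. Started with 1 mM NAD+ and 30 uM prostaglandin E2; NADH fluorescence (360/450 nm) read 5 times over 30-s intervals, last minus first.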
% is set by controls: 0 for no effect and ±100 for the full control effect; potency is the fitted concentration of half-maximal effect; tags give direction and shape of the fitted curve.

Structure (SMILES)	Potency	activity change, negative = inhibition
CCOC(=O)c1sc(=S)n(-c2cc(F)ccc2F)c1N	active: 25.1 µM	–
COC(=O)N1c2ccccc2C23[C@@H]4CN5CCC[C@]6(CCC12C(O)(C6)C4=O)[C@H]53	–	inactive: -1.82%
COc1ccccc1CN(C)C(=O)C1COc2ccccc2O1 (stereo not drawn)	active: 7.08 µM	–
Cn1cccc1/C=N/n1c(-c2ccccc2)n[nH]c1=S	active: 14.1 µM	–
Cc1cccc(N2CCN(C(=O)COc3cccc4c3OC(C)(C)C4)CC2)c1C	–	inactive: -20.1%
O=C(NN=C1CCCC1)c1cccs1	inconclusive: 35.5 µM [inhibitor, single point]	–
COc1ccccc1/C=C\C=N\n1c(C2CCCCC2)n[nH]c1=S	active: 14.1 µM	–
COc1ccc(-c2nc(C#N)c(NC(C)c3ccccc3)o2)cc1OC (stereo not drawn)	inconclusive: 28.2 µM [inhibitor, partial curve]	–
COCCCn1c(CCC(=O)O)ccc1-c1ccc(F)cc1	inconclusive: 31.6 µM [inhibitor, partial curve]	–
Cc1ccc(/C(O)=C2\C(=O)C(=O)N(c3cc(C)on3)C2c2cccc(Br)c2)cc1 (stereo not drawn)	–	inactive: -16.1%
CC(=O)SC(C)CC(=O)NCc1ccccc1 (stereo not drawn)	active: 28.2 µM	–
COc1cccc(OCCNC(=O)CSc2ccc(C(F)(F)F)cc2[N+](=O)[O-])c1	–	inactive: -25%
Cc1ccc(-c2nnc(SCC(=O)N3CC(C)CC(C)C3)o2)cc1C (stereo not drawn)	inconclusive: 31.6 µM [inhibitor, single point]	–
O=C(NCC1CCCO1)c1nc2c(nnn2Cc2ccc(F)cc2)c(=O)[nH]1 (stereo not drawn)	active: 14.1 µM	–
CN(CCCCCC(=O)/C=N/O)Cc1ccccc1	–	inactive: -1.46%
O=C(CCCC(=O)OCC(Cl)=C(Cl)Cl)Nc1ccccc1	active: 25.1 µM	–
Cc1cccc(C)c1NC(=O)CSc1ccc([N+](=O)[O-])cn1	–	inactive: -5.79%
CSCC[C@H](NC(=O)OC(C)(C)C)c1nnc(SCC(N)=O)o1	–	inactive: -7.48%
CC1CCC2(CC1)Nc1ccccc1C(=O)N2c1ccccc1 (stereo not drawn)	inconclusive: 28.2 µM [inhibitor, partial curve]	–
Oc1ccc(/C=N/Nc2ncnc3c2ncn3Cc2ccccc2)cc1O	active: 25.1 µM	–
Cc1ccc(C)c(S(=O)(=O)NCc2ccc(C(=O)N3CCCCCC3)cc2)c1	active: 7.08 µM	–
CN(C)c1ccc(N/C=C/C(=O)c2ccc(F)cc2)cc1	–	inactive: -7.1%
Cc1nc(N2CCN(c3ccccc3)CC2)nc2c1C(=O)CC(C)C2 (stereo not drawn)	inconclusive: 39.8 µM [inhibitor, partial curve]	–
Cc1ccc(-c2nnc(-c3ccc4ccccc4c3)o2)cc1	inconclusive: 7.08 µM [inhibitor, single point]	–
CCOC(=O)c1cc(-c2ccc(C#N)cc2)nc2c1c(C)nn2CCC#N	inconclusive: 22.4 µM [inhibitor, partial curve]	–

Structure (SMILES)	Potency	activity change, negative = inhibition
NC1=NC(c2ccc(F)cc2)n2c(nc3ccccc32)N1 (stereo not drawn)	–	inactive: -19.6%
O=C(NCC1CCCO1)c1cc(-c2ccc(Cl)cc2Cl)on1 (stereo not drawn)	active: 8.91 µM	–
Cc1cc(=O)oc2cc(OCc3nnc(-c4ccccc4Br)o3)ccc12	inconclusive: 11.2 µM [inhibitor, partial curve]	–
Cc1cc(/C=C2\Cc3ccccc3C2=O)c(C)n1-c1ccccc1	inconclusive: 35.5 µM [inhibitor, partial curve, poor fit]	–
Cn1cccc1/C=N/n1c(-c2ccc(C(C)(C)C)cc2)n[nH]c1=S	active: 11.2 µM	–
Cc1cccc(C(=O)NC(=S)N2CCN(C)CC2)c1	–	inactive: -6.17%
COC(=O)/C(=C1/Oc2cc3c(cc2S1)OCO3)C(F)(F)F	inconclusive: 31.6 µM [inhibitor, single point]	–
S=c1[nH]nc(-c2ccccn2)n1/N=C/c1ccccc1	inconclusive: 39.8 µM [inhibitor, single point]	–
COc1ccc(CNC(=O)CSc2nc(-c3ccccc3)cc(-c3cccs3)c2C#N)cc1	inconclusive: 31.6 µM [inhibitor, partial curve]	–
Cc1cc2nc(SCCOC(=O)Nc3ccc(Cl)cc3)nc(C)c2cc1C	active: 14.1 µM	–
CC1CC2(CCCCC2)Nc2ccc3ccccc3c21 (stereo not drawn)	inconclusive: 25.1 µM [inhibitor, partial curve]	–
C[C@H]1CC[C@@H]2N(C1)C[C@H]1[C@@H]3C[C@H]4[C@@H](C/C(=N\O)[C@H]5C[C@@H](O)CC[C@@]54C)[C@@H]3CC[C@H]1[C@]2(C)O	–	inactive: -5.58%
CCOC(=O)c1c(NC(=O)CSc2nnc(CNc3ccc(Cl)cc3)o2)sc(C)c1C	–	inactive: -4.1%
O=C1CCCC(O)=C1C=Nc1ccc2c(c1)oc1ccccc12	inconclusive: 20 µM [inhibitor, single point]	–
O=C(CCn1c(=O)c2ccccc2n(Cc2cc(=O)n3ccccc3n2)c1=O)NCc1ccco1	inconclusive: 25.1 µM [inhibitor, partial curve]	–
COc1ccc(C(=O)/C(=C\c2ccco2)N2C=CC=CC2=C(C#N)C#N)cc1	inconclusive: 31.6 µM [inhibitor, partial curve]	–
COc1ccc(-c2nc3cnc(N4CCNCC4)nc3n(C)c2=O)cc1	inconclusive: 28.2 µM [inhibitor, partial curve]	–
CC1CCCN(C(=O)c2ccc(COc3ccccc3Br)cc2)C1 (stereo not drawn)	active: 0.0891 µM	–
CC1(C)OCC(CSC2=C(SCC3COC(C)(C)O3)C(=O)c3ncccc3C2=O)O1 (stereo not drawn)	active: 3.55 µM	–
CCCCn1c(SCC(=O)Nc2cccc(OC)c2)nc2ccc(N3CCOCC3)cc2c1=O	inconclusive: 28.2 µM [inhibitor, partial curve]	–
O=C(CSc1nc(-c2ccc(F)cc2)cs1)N1CCN(C(=O)c2ccco2)CC1	inconclusive: 35.5 µM [inhibitor, partial curve]	–
N#CCCn1nc(-c2ccc([N+](=O)[O-])cc2)cc1Nc1ccccc1NC(=O)C(F)(F)F	–	inactive: -18.9%
Cn1cccc1Cc1nnc(SCC(=O)N2CCOCC2)n1-c1ccc(F)cc1	–	inactive: -3.57%
CCOC(=S)NC(=O)c1sc2ccccc2c1Cl	–	inactive: -25.2%
COc1ccc(C(=O)N2CCC[C@@]3(CCN(Cc4ccncc4)C3)C2)cc1	active: 35.5 µM	–

Structure (SMILES)	Potency	activity change, negative = inhibition
COc1cc2[nH]c(=O)n(CCCCCC(=O)NCCCN3CCCC3=O)c(=O)c2cc1OC	inconclusive: 22.4 µM [inhibitor, partial curve]	–
Cc1ccc(C)c(NS(=O)(=O)c2cc(C(=O)Nc3ccccc3-c3ccccc3)ccc2C)c1	inconclusive: 35.5 µM [inhibitor, single point]	–
CCCCCCN(C(=O)CCCCCN1C(=O)NC(c2ccc(Cl)cc2)C(C(=O)OCc2ccccc2)=C1C)C(C(=O)NCCCC)c1ccc(OCC(=O)OC)c(C(=O)OC)c1 (stereo not drawn)	–	inactive: -13.1% and inactive: -14.3%
N#CCCN(C(=O)COC(=O)c1ccc(CNS(=O)(=O)c2ccc(F)c(Cl)c2)cc1)c1ccc(F)cc1	–	inactive: -21.9%
C=CCNC(=O)c1csc(-c2ccccc2)n1	active: 15.8 µM	–
O=C(CCCc1nc2ccccc2s1)NCc1ccccc1F	active: 31.6 µM	–
CC(C)(C)CC(C)(C)c1ccc(O)c(Cc2ccc(Cl)cc2Cl)c1	–	inactive: -20.6%
COc1cc([C@@H]2Oc3cc([C@H]4Oc5cc(O)cc(O)c5C(=O)[C@H]4O)ccc3O[C@H]2CO)ccc1O	active: 35.5 µM	–
CC(=O)c1ccc2c(c1)C1C=CCC1C(c1ccc(S(=O)(=O)N3CCOCC3)cc1)N2 (stereo not drawn)	–	inactive: -9.23%
CCN(CC)Cc1c(O)ccc2c(=O)c(-c3ccc4c(c3)OCCO4)coc12	inconclusive: 31.6 µM [inhibitor, partial curve]	–
O=C(Nc1cccc2nsnc12)c1ccc2c(c1)OCCO2	inconclusive: 14.1 µM [inhibitor, partial curve]	–
O=S(=O)(c1ccc(-c2ccccc2)cc1)N1CCOCC1	–	inactive: -15.4%
CC(C)OP(=O)(OC(C)C)C1(O)C(=O)Nc2ccc(Br)cc21 (stereo not drawn)	–	inactive: -14.9%
O=S(=O)(Nc1cccnc1Cl)c1ccc2c(c1)OCCO2	–	inactive: -3.88%
N#Cc1nc(COc2ccccc2)oc1N1CCCCC1	inconclusive: 35.5 µM [inhibitor, single point]	–
Cn1c(N)c(C(=O)COC(=O)c2cc(C3CC3)nc3ccccc23)c(=O)n(Cc2ccccc2)c1=O	inconclusive: 39.8 µM [inhibitor, single point] and inconclusive: 15.8 µM [inhibitor, partial curve]	–
COC(=O)N1CCC2(CC1)CN(c1cccc(-c3ccccc3)c1)C2	inconclusive: 31.6 µM [inhibitor, partial curve]	–
CCN(CC)CCCN1C(=O)C(=O)/C(=C(/O)c2ccc3c(c2)OCCO3)C1c1ccc(C)o1 (stereo not drawn)	–	inactive: -14.7%
CC(C)NC(=O)/C(C#N)=C/c1ccc2c(c1)OCCO2	active: 28.2 µM	–
CNc1cc(N2CCCCCC2)ccc1[N+](=O)[O-]	inconclusive: 35.5 µM [inhibitor, partial curve]	–
CCCC(=O)c1ccc(N2CCN(C(=O)c3ccccc3Br)CC2)c(F)c1	–	inactive: -14.2%
OC(CCCN1CCCCC1)(c1ccccc1)c1ccccc1	–	inactive: -3.29% and inactive: -8.24%
CC1CCN(C(=O)c2ccc3c(c2NCCO)C(=O)c2ccccc2C3=O)CC1	active: 22.4 µM	–
